Test results from the supplement of paper PMC4967469.
pIC50: −log10 of the molar value. Lines with a small IC50 respond at low doses; a fit beyond the top or the lowest dose is shown as a bound at that dose. The AUC spans the tested range (256-fold, ending at the top dose) of the same fit: 1 means no effect, lower means more sensitive. For some assays here: The top dose, if marked as inferred, comes from the curve model; the source does not state it.

Assays:
Assay in all cases: Viability of human cancer cell lines after 72 h of drug (GDSC screen)
[1] = compound: COc1cc(C(=O)NC2CCN(C)CC2)ccc1Nc1ncc2c(n1)N(C1CCCC1)C(C)CC(=O)N2C [NPK76-II-72-1]; details: top dose 10.24 µM; top dose inferred
Method: (§1)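 Human cancer cell lines in 384-well plates, medium with 10% serum, drug for 72 h over a 256-fold dose range (nine 2-fold or five 4-fold steps up to the top dose). Adherent lines were fixed and stained with the nucleic acid dye Syto60, suspension lines read with resazurin; signal relative to control wells, capped at 0 and 100%. One two-parameter sigmoid per drug and line, fitted in a mixed model over all curves with the slope shared within a line.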

[2] = compound: NC(=O)Nc1cc(-c2cccc(F)c2)sc1C(=O)N[C@H]1CCCNC1 [AZD7762]; details: top dose 2 µM
Method: as §1

[3] = compound: Cc1ccc2nc(NCCN)c3ncc(C)n3c2c1 [BMS-345541]; details: top dose 16 µM
Method: as §1

[4] = compound: COc1cc([C@@H]2c3cc4c(cc3[C@@H](O[C@@H]3O[C@@H]5CO[C@@H](C)O[C@H]5[C@H](O)[C@H]3O)[C@H]3COC(=O)[C@H]23)OCO4)cc(OC)c1O [Etoposide]; details: top dose 16 µM
Method: as §1

[5] = compound: C=C(c1ccc(C(=O)O)cc1)c1cc2c(cc1C)C(C)(C)CCC2(C)C [Bexarotene]; details: top dose 8 µM
Method: as §1

[6] = compound: O=C(O)c1ccc(-c2c[nH]c3ncc(-c4ccccc4)cc23)cc1C1CCCC1 [GSK-650394]; details: top dose 16 µM; top dose inferred
Method: as §1

[7] = compound: COc1ccc(C(=O)CC2(O)C(=O)Nc3c(Cl)ccc(Cl)c32)cc1 [YK 4-279]; details: top dose 10 µM
Method: as §1

[8] = compound: Oc1nc(-c2ccc(C(F)(F)F)cc2)nc2c1CSCC2 [XAV 939]; details: top dose 5 µM; top dose inferred
Method: as §1

Cell Line | AUC [1] | pIC50 [1] | AUC [2] | pIC50 [2] | AUC [3] | pIC50 [3] | AUC [4] | AUC [5] | pIC50 [5] | AUC [6] | pIC50 [6] | AUC [7] | pIC50 [7] | AUC [8] | pIC50 [8] | pIC50 [4]
KYSE-150 (oesophagus, adherent) | 0.959 | < 4.99 | 0.957 | < 5.70 | 0.922 | < 4.80 | 0.398 | 0.961 | < 5.10 | 0.717 | 5.40 | 0.864 | 5.09 | 0.982 | < 5.30 | –
KYSE-450 (oesophagus, adherent) | 0.904 | < 4.99 | 0.727 | 6.28 | 0.712 | 5.42 | 0.615 | 0.906 | < 5.10 | 0.659 | 5.57 | 0.68 | 5.72 | 0.97 | < 5.30 | 5.69
KYSE-510 (oesophagus, adherent) | 0.929 | < 4.99 | 0.848 | 5.95 | 0.935 | < 4.80 | 0.425 | 0.929 | < 5.10 | 0.526 | 5.94 | 0.623 | 5.89 | 0.968 | < 5.30 | 6.19
KYSE-520 (oesophagus, adherent) | 0.968 | < 4.99 | 0.765 | 6.01 | 0.884 | < 4.80 | 0.853 | 0.955 | < 5.10 | 0.967 | < 4.80 | 0.846 | < 5.00 | 0.979 | < 5.30 | < 4.80
L-428 (Hodgkin lymphoma, suspension) | 0.965 | < 4.99 | 0.704 | 6.36 | 0.891 | 4.83 | 0.697 | 0.988 | < 5.10 | 0.954 | < 4.80 | 0.917 | < 5.00 | 0.992 | < 5.30 | 5.48
L-540 (Hodgkin lymphoma, suspension) | 0.899 | < 4.99 | 0.516 | 6.86 | 0.876 | 4.89 | 0.533 | 0.935 | < 5.10 | 0.952 | < 4.80 | 0.574 | 6.01 | 0.981 | < 5.30 | 5.91
L-1236 (Hodgkin lymphoma, suspension) | 0.972 | < 4.99 | 0.675 | 6.45 | 0.908 | < 4.80 | 0.875 | 0.981 | < 5.10 | 0.982 | < 4.80 | 0.981 | < 5.00 | 0.991 | < 5.30 | 4.93
LAMA-84 (chronic myeloid leukaemia, suspension) | 0.599 | 5.92 | 0.404 | 7.17 | 0.861 | 4.86 | 0.808 | 0.914 | < 5.10 | 0.84 | 4.95 | 0.983 | < 5.00 | 0.947 | < 5.30 | 5.07
LAN-6 (neuroblastoma, adherent) | 0.96 | < 4.99 | 0.772 | 6.04 | 0.842 | 4.84 | 0.98 | 0.982 | < 5.10 | 0.983 | < 4.80 | 0.885 | < 5.00 | 0.977 | < 5.30 | < 4.80
LB373-MEL-D (melanoma, adherent) | 0.948 | < 4.99 | 0.988 | < 5.70 | 0.983 | < 4.80 | 0.948 | 0.973 | < 5.10 | 0.989 | < 4.80 | 0.892 | < 5.00 | 0.989 | < 5.30 | < 4.80
LB2241-RCC (kidney, adherent) | 0.98 | < 4.99 | 0.497 | 6.91 | 0.98 | < 4.80 | 0.858 | 0.959 | < 5.10 | 0.794 | 5.08 | 0.714 | 5.56 | 0.945 | < 5.30 | 4.80
LC4-1 (lymphoblastic leukaemia, suspension) | 0.628 | 5.82 | 0.924 | < 5.70 | 0.787 | 5.11 | 0.672 | 0.827 | 5.25 | 0.935 | < 4.80 | 0.734 | 5.50 | 0.98 | < 5.30 | 5.50
LCLC-97TM1 (large cell lung carcinoma, adherent) | 0.643 | 5.78 | 0.646 | 6.48 | 0.886 | < 4.80 | 0.416 | 0.914 | < 5.10 | 0.563 | 5.82 | 0.709 | 5.59 | 0.963 | < 5.30 | 6.24
LCLC-103H (large cell lung carcinoma, adherent) | 0.806 | 5.34 | 0.818 | 6.00 | 0.898 | < 4.80 | 0.462 | 0.921 | < 5.10 | 0.695 | 5.48 | 0.797 | 5.38 | 0.99 | < 5.30 | 6.10
LK-2 (lung squamous cell carcinoma, adherent) | 0.707 | 5.63 | 0.873 | 5.76 | 0.923 | < 4.80 | 0.563 | 0.933 | < 5.10 | 0.988 | < 4.80 | 0.64 | 5.83 | 0.972 | < 5.30 | 5.83
LN-18 (glioma, adherent) | 0.994 | < 4.99 | 0.674 | 6.47 | 0.973 | < 4.80 | 0.555 | 0.933 | < 5.10 | 0.548 | 5.88 | 0.642 | 5.85 | 0.993 | < 5.30 | 5.86
LN-405 (glioma, adherent) | 0.983 | < 4.99 | 0.853 | < 5.70 | 0.896 | < 4.80 | 0.935 | 0.982 | < 5.10 | 0.976 | < 4.80 | 0.907 | < 5.00 | 0.975 | < 5.30 | < 4.80
LNZTA3WT4 (glioma, adherent) | 0.962 | < 4.99 | 0.531 | 6.82 | 0.969 | < 4.80 | 0.735 | 0.922 | < 5.10 | 0.944 | < 4.80 | 0.602 | 5.92 | 0.969 | < 5.30 | 5.34
LOU-NH91 (lung squamous cell carcinoma, adherent) | 0.958 | < 4.99 | 0.603 | 6.61 | 0.972 | < 4.80 | 0.928 | 0.96 | < 5.10 | 0.986 | < 4.80 | 0.767 | 5.39 | 0.98 | < 5.30 | < 4.80
LS-123 (large intestine, adherent) | 0.975 | < 4.99 | 0.866 | < 5.70 | 0.906 | < 4.80 | 0.676 | 0.944 | < 5.10 | 0.838 | < 4.80 | 0.92 | < 5.00 | 0.919 | < 5.30 | 5.44
LS-180 (large intestine, adherent) | 0.956 | < 4.99 | 0.855 | 5.71 | 0.9 | < 4.80 | 0.532 | 0.939 | < 5.10 | 0.761 | 5.19 | 0.839 | 5.08 | 0.977 | < 5.30 | 5.91
LS-513 (large intestine, adherent) | 0.818 | 5.22 | 0.694 | 6.35 | 0.881 | < 4.80 | 0.938 | 0.987 | < 5.10 | 0.981 | < 4.80 | 0.817 | 5.23 | 0.976 | < 5.30 | < 4.80
LS-1034 (large intestine, adherent) | 0.877 | < 4.99 | 0.93 | < 5.70 | 0.884 | < 4.80 | 0.866 | 0.919 | < 5.10 | 0.851 | 4.85 | 0.798 | 5.27 | 0.974 | < 5.30 | < 4.80
LU-134-A (small cell lung carcinoma, suspension) | 0.642 | 5.79 | 0.74 | 6.19 | 0.782 | 5.15 | 0.363 | 0.987 | < 5.10 | 0.784 | 5.14 | 0.906 | < 5.00 | 0.981 | < 5.30 | 6.39
LU-135 (small cell lung carcinoma, suspension) | 0.708 | 5.66 | 0.634 | 6.56 | 0.854 | 5.03 | 0.262 | 0.977 | < 5.10 | 0.684 | 5.53 | 0.968 | < 5.00 | 0.985 | < 5.30 | 6.62
LU-139 (small cell lung carcinoma, suspension) | 0.575 | 5.96 | 0.928 | < 5.70 | 0.718 | 5.30 | 0.71 | 0.981 | < 5.10 | 0.976 | < 4.80 | 0.854 | < 5.00 | 0.969 | < 5.30 | 5.33
LU-165 (small cell lung carcinoma, suspension) | 0.926 | < 4.99 | 0.988 | < 5.70 | 0.808 | 5.02 | 0.822 | 0.984 | < 5.10 | 0.983 | < 4.80 | 0.936 | < 5.00 | 0.978 | < 5.30 | 4.96
